Laboratory results reported in the supplement of paper PMC10126150.
Values marked as one replicate rest on one cluster of the flow cell; about a third of the high ones do not repeat.

Tested on: ATP
Assay: switch fluorescence ratio, 500 uM ATP over buffer (Cy3 cluster intensity, sum of 5 cycles each) (fold (ratio)); higher = stronger signal-on switching upon ATP binding; sequences stand for … in TCGTCGGCAGCGTCAGATGTGTATAAGAGACAGTTTTTTTTTTTTTTTTTTTTTTTTT…TC
Conditions: aptamer strand: ATP DNA aptamer (quencher-CACCTGGGGGAGTATTGCGGAGGAAGG + anchor), 100 nM annealed; ATP concentration: 500 uM; one replicate
Summary of the method: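 Switching-strand clusters labelled with Cy3 on a modified Illumina MiSeq flow-cell were annealed to 100 nM quencher-labelled ATP aptamer, imaged in selection buffer, and re-imaged after 15 min with 500 uM ATP at 22 °C. This was done over five cycles with NaOH stripping and re-annealing in between. The fluorescence ratio is summed target-cycle over summed buffer-cycle Cy3 intensity per cluster, averaged per switch-domain sequence, excluding clusters outside 100-1000 RFU.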
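Note: ATP exposure 15 min at 22 °C before imaging.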

| Sequence | switch fluorescence ratio |
| --- | --- |
| GACCAGAAAT | 1.01 |
| GAGGCACCGA | 0.998 |
| GGTCAGCTTG | 0.988 |
| TAGGAGTC | 1.03 |
| TAAAAACGCA | 1.09 |
| CCATTGCGCG | 1.02 |
| CTAGCTTCTG | 1.02 |
| TTCAATGTGT | 0.991 |
| AAGCTAGGTT | 1.04 |
| GTAGCAGGTT | 1.04 |
| GTTTCAGTAC | 1.04 |
| AAGAATGACC | 1.16 |
| GGAATCACGA | 1.02 |
| GGGGGCACAT | 0.986 |
| TGCGATATAC | 2.59 |
| ACCCCCAAGG | 1.88 |
| GGTTTACCT | 0.992 |
| AGTGTTCTG | 0.958 |
| AGCGGAATAA | 1.38 |
| AGAGCCCCTT | 0.996 |
| CATGGAATGA | 0.972 |
| ATTACCCGGC | 1.02 |
| TTAATGGATT | 1.01 |

| Sequence | switch fluorescence ratio |
| --- | --- |
| AAGAACTTA | 1.03 |
| CGATTGTTGT | 1.02 |
| TAAACTGTCC | 1.53 |
| GCTTATCGGA | 0.978 |
| GGCCGTCACT | 1 |
| GATGCCTGAT | 0.993 |
| AAGGGCTTC | 0.966 |
| GGCGCGAACC | 1.2 |
| AAATCTCCTG | 1.05 |
| TGCCGCGGCA | 1.04 |
| TGATCTGTTA | 1.04 |
| GCAGGGTTTT | 0.986 |
| AGCCGAGTGG | 0.96 |
| AGGGGGTCCC | 0.885 |
| TAGGTGAAGT | 1.03 |
| TGCGTCGGCT | 1.04 |
| TAGACGTACT | 1.63 |
| GATATTACGA | 1.01 |
| TTTGAACTGG | 1.05 |
| CCTACGACGG | 2 |
| TGAAAATCAG | 0.952 |
| CCTAAAATT | 1.03 |
| TTCGATATAC | 3.67 |

| Sequence | switch fluorescence ratio |
| --- | --- |
| GGGCATATTT | 0.966 |
| AGTTCGGACT | 1.01 |
| GGTGGGGACT | 1.02 |
| CGCCTGAGTA | 0.951 |
| TTTATCCGAT | 0.983 |
| TCGGGCTTTA | 0.939 |
| GGGTAATGTT | 1.03 |
| AGAGGAAATG | 1.04 |
| TAGGTAGCGA | 1.03 |
| GCCTCACGGT | 1.01 |
| AAGGCTCAC | 1.05 |
| ATATGTCGTA | 0.991 |
| CGACGACATT | 1.94 |
| TTGACGGTAA | 1.14 |
| CGGGCACGGT | 1.02 |
| AGGGTGACGA | 1.01 |
| TATTAAACGT | 1.07 |
| GAAACTGCTT | 0.933 |
| AGTTCACTGT | 1.01 |
| GCGATAACGG | 1.03 |
| GAGTTCATTA | 0.981 |
| ATGGAGGGG | 0.956 |
| TATGCTGTA | 1.1 |

| Sequence | switch fluorescence ratio |
| --- | --- |
| AGCTCTAGAA | 0.96 |
| CGCACAATA | 1.62 |
| GGGGTAATAC | 2.51 |
| AGAGAGTAAT | 1.03 |
| GCGAACCACA | 1.02 |
| TATAAAAACC | 1.03 |
| TAGGAACGAT | 1.02 |
| CTTGAAGTAG | 1 |
| ACGGACTGGG | 0.989 |
| AAATTTATGA | 0.964 |
| TCCAAGATCC | 1.07 |
| GCGTACAACC | 1.09 |
| GCTTCCCGGG | 1.17 |
| ACCCGGTTCT | 1.02 |
| GGCCCATTCC | 0.967 |
| GCGAATTTTT | 0.979 |
| GGTGATTTAG | 1.2 |
| GGGCATGAGA | 0.992 |
| CTTAAGGGG | 0.983 |
| TGCTATTCCC | 1.06 |
| TCGTCTGGGA | 1.04 |
| CTGTTTATGG | 1.1 |
| TCAAATGGAA | 1.02 |

| Sequence | switch fluorescence ratio |
| --- | --- |
| GACGGTGGCC | 0.974 |
| TTAGCCAATT | 1.06 |
| GACGAGGAG | 1.02 |
| AAGAAACGGT | 0.975 |
| GCTAAGAGAG | 1.03 |
| GAGAGCTGTT | 0.983 |
| AACGTATTTG | 1.07 |
| TTGTCGCTAG | 0.958 |
| TGTATTGTAT | 0.979 |
| CGGCAGCACA | 2.42 |
| TTGGAGATCC | 0.989 |
| GTTCCTAGGA | 1.02 |
| TAAGGGCGTC | 1.05 |
| TGAAGGTATC | 1.01 |
| TTACGGGTTC | 0.998 |
| TGTAGGTTGA | 0.976 |
| AGCCAACAGG | 1.12 |
| GGTTACAATG | 1.02 |
| CTTTTCGACA | 0.999 |
| ACGTACTCGG | 1.7 |
| TACTATGTAA | 1.05 |
| GTGGGCAAGC | 1.09 |
| AAATCGCAAC | 1.99 |

| Sequence | switch fluorescence ratio |
| --- | --- |
| TTCTTGAGAG | 0.963 |
| AAGATTATCC | 0.978 |
| GCAATACTTG | 6.1 |
| AACGAAAGAG | 1.03 |
| ACAACATTTT | 1.04 |
| TTGGTTGCGA | 1.07 |
| TGCTGGCATT | 0.976 |
| GAAGCCACCT | 0.968 |
| AAAAGACGTG | 0.985 |
| CGGGGTCTGC | 0.978 |
| AGAAACGCGA | 1.06 |
| GCAGCGTCA | 1.13 |
| TATCCTGCTC | 1.1 |
| TATTTAAGAA | 0.986 |
| GTTTGCTTTC | 1.02 |
| TGATAGTTGG | 1.04 |
| TACCCACTAG | 1.43 |
| TGCTGATCCT | 1.01 |
| TGACTTATAG | 0.956 |
| CATATTAGCT | 0.96 |
| AGAATAATTT | 1.04 |
| GTAGATGGTT | 0.989 |
| TAACCGTCCT | 1.37 |

| Sequence | switch fluorescence ratio |
| --- | --- |
| ATTGAGGCTA | 0.989 |
| AATGCCATAA | 0.989 |
| ATGCCTAACT | 0.97 |
| AGAGGTTGAT | 0.969 |
| CGCATTAAGA | 1.12 |
| AGTTAATTCA | 0.962 |
| TCACCCTAAT | 1.06 |
| TTGTGGTGTA | 1.01 |
| AAGGGTTGTG | 1 |
| TCTGCTGAGG | 1.01 |
| TGGGAATAGA | 1.06 |
| CTGCGGATGC | 1.4 |
| TGATGGTAGC | 0.98 |
| CCGGCCTCAT | 1.32 |
| TGGGAGGTAT | 1.01 |
| AAAAACCCTA | 1.04 |
| ACCTACGAAT | 1.42 |
| AGAGTACGCA | 1.26 |
| AAGGACCGCA | 1.25 |
